In DBAASP one finds MIC data, which are given here for three compounds.

Common to all, as to assay: ≥ marks a high value that may be exact or a test limit, other limits are often not marked
For test [1], the system named is Listeria monocytogenes ATCC 15313.
The test system of test [2] is Escherichia coli DH5alpha.
The subject of test [3] is Burkholderia cepacia ATCC 25416.
Test [4] concerns Flavobacterium sp. PAMC 22217.
Test [5] deals with Pseudomonas aeruginosa ATCC 15442.
For test [6], the system named is Staphylococcus aureus ATCC 33591.
Test [7] has as its system Enterobacter cloacae ATCC 13047.
Test [8] relates to Candida glabrata ATCC 2001.
Test [9] deals with Lacinutrix algicola AKS293T.
The test system of test [10] is Psychrobacter sp. PAMC 21119.
Test [11] deals with Candida tropicalis ATCC 20115.
The subject of test [12] is Shigella sonnei ATCC 29930.
Test [13] has as its system Streptococcus pyogenes ATCC 19615.
The subject of test [14] is Enterococcus faecalis ATCC 29212.
In test [15] the test system is Streptococcus pneumoniae ATCC 49619.
Test [16] deals with Mycobacterium tuberculosis mc2-6020.
The test system of test [17] is Streptococcus mutans.
The test system of test [18] is Klebsiella pneumoniae.
In test [19] the test system is Streptococcus agalactiae.
In test [20] the test system is Pseudomonas aeruginosa ATCC 27853.
The test system of test [21] is Mycobacterium tuberculosis mc2-6230.
Test [22] concerns Streptococcus pyogenes.
Test [23] has as its system Bacillus subtilis BGSC 1A1.
Test [24] deals with Escherichia coli ATCC 25922.
The subject of test [25] is Staphylococcus aureus ATCC 25923.
For test [26], the system named is Micrococcus luteus A270.
Test [27] has as its system Listeria innocua.
The subject of test [28] is Escherichia coli.
Test [29] relates to Salmonella enterica subsp. enterica serovar Enteritidis.

≈ marks a conversion by molar mass, not a printed value.

By MIC is commonly meant the lowest concentration found to suppress growth. Higher therefore signals weaker potency. `CC[C@H](C)[C@H](NC(=O)[C@H](Cc1cnc[nH]1)NC(=O)[C@H](Cc1cnc[nH]1)NC(=O)[C@H](Cc1c[nH]c2ccccc12)NC(=O)[C@H](Cc1ccccc1)NC(=O)[C@@H](N)Cc1ccccc1)C(=O)NCC(=O)N[C@@H](Cc1cnc[nH]1)C(=O)N[C@@H](C)C(=O)N[C@@H](CC(C)C)C(=O)N[C@@H](CC(=O)O)C(=O)N[C@@H](C)C(=O)N[C@@H](C)C(=O)N[C@@H](CCCCN)C(=O)N[C@@H](CCCN=C(N)N)C(=O)N[C@H](C(=O)N[C@@H](Cc1cnc[nH]1)C(=O)NCC(=O)N[C@@H](CCSC)C(=O)N[C@@H](CC(C)C)C(=O)N[C@@H](CO)C(=O)NCC(N)=O)C(C)C` [FFWHHIGHALDAAKRVHGMLSG]: the minimum inhibitory concentration (MIC) in test [1] was 12.5 µM (≈ 31.1 µg/mL); in test [2], 12.5 µM (≈ 31.1 µg/mL); in [3] it was not below 50 µM; in test [4], 5 µM (≈ 12.4 µg/mL); in test [5], not below 50 µM; in test [6], 25 µM (≈ 62.2 µg/mL). Further, the MIC is not below 50 µM in [7]; not below 50 µM in [8]; 12.5 µM (≈ 31.1 µg/mL) in test [9]; 2.5 µM (≈ 6.22 µg/mL) in [10]; 5 µM (≈ 12.4 µg/mL) in test [11]; 12.5 µM (≈ 31.1 µg/mL) in test [12]. Moreover, the MIC in test [13] was 25 µM (≈ 62.2 µg/mL); in [14], more than 50 µM.

Turning to `CC[C@H](C)[C@H](N)C(=O)N[C@@H](CC(C)C)C(=O)N[C@@H](CO)C(=O)N[C@@H](CC(C)C)C(=O)N[C@@H](CCCN=C(N)N)C(=O)N[C@@H](Cc1c[nH]c2ccccc12)C(=O)N[C@@H](CCCN=C(N)N)C(=O)N[C@@H](Cc1c[nH]c2ccccc12)C(=O)N[C@@H](CCCCN)C(=O)N[C@@H](Cc1c[nH]c2ccccc12)C(=O)N[C@@H](Cc1c[nH]c2ccccc12)C(=O)N[C@@H](CCCCN)C(=O)N[C@@H](CCCCN)C(=O)O` [ILSLRWRWKWWKK], the minimal inhibitory concentration (MIC) in test [15] was not below 32 µM; in test [16] it was 8 µM (≈ 15.1 µg/mL); in test [17] it was 8 µM (≈ 15.1 µg/mL); in test [18], 68 µM (≈ 128 µg/mL); in [19] it was 8 µM (≈ 15.1 µg/mL); in [20], 32 µM (≈ 60.4 µg/mL). For the same compound, the MIC in [21] is not below 32 µM; in test [22] it was 4 µM (≈ 7.55 µg/mL); in test [23], 4 µM (≈ 7.55 µg/mL); in [24] it was 16 µM (≈ 30.2 µg/mL); in test [25], 68 µM (≈ 128 µg/mL).

Take `CC(C)C[C@H](NC(=O)[C@H](Cc1ccccc1)NC(=O)[C@H](CCCCN)NC(=O)[C@H](CC(=O)O)NC(=O)[C@H](CC(C)C)NC(=O)[C@H](CO)NC(=O)[C@H](C)NC(=O)[C@H](Cc1cnc[nH]1)NC(=O)[C@@H](NC(=O)[C@H](C)NC(=O)[C@@H]1CCCN1C(=O)[C@@H](NC(=O)[C@H](Cc1ccccc1)NC(=O)[C@H](CC(=O)O)NC(=O)[C@H](CO)NC(=O)[C@@H]1CCCN1C(=O)[C@H](CC(C)C)NC(=O)[C@H](Cc1cnc[nH]1)NC(=O)[C@H](CO)NC(=O)[C@H](C)NC(=O)[C@H](CC(C)C)NC(=O)[C@@H](NC(=O)[C@@H](N)C(C)C)[C@@H](C)O)[C@@H](C)O)C(C)C)C(=O)N[C@@H](C)C(=O)N[C@@H](CC(N)=O)C(=O)N[C@H](C(=O)N[C@@H](CO)C(=O)O)C(C)C` [VTLASHLPSDFTPAVHASLDKFLANVS]: the minimal inhibitory concentration (MIC) in test [26] was 9 µM (≈ 25.5 µg/mL); in test [27] it was not below 37 µM; in test [28], 73 µM (≈ 207 µg/mL); in [29], not below 37 µM.
